# In the supplement of paper PMC3334620:
# Over roughly 33,000 sequences, “E-score (-0.5 to 0.5)” has its median near -0.054; the highest 2% begin near 0.39. The list shows a part of the results.
# Biological target: Ylr278c (UniProt Q05854)
# Test: PBM E-score (8-mer binding enrichment) (E-score (-0.5 to 0.5)); higher = stronger / more preferred TF binding; most listed sequences are background and not binding sites
# Conditions: protein concentration: 200 nM; construct: GST-DNA-binding domain
# Outline: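 Yeast transcription factors, full-length or as DNA-binding domains, were expressed with a GST tag using PURExpress in vitro transcription/translation. At about 100-200 nM they were applied to universal all-10-mer Agilent arrays, double-stranded by primer extension on fresh or once-stripped slides. Fluorescent anti-GST detected bound protein, and masliner normalised the scans. E-scores for ungapped eight-base words, pooled with reverse complements, came from the Universal PBM Analysis Suite.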
row,Sequence,PBM E-score
1,GTACCCAC,0.181
2,GTTTGCTA,-0.0641
3,CCACTATC,0.00626
4,GTAACATA,-0.0365
5,CTTCCGCC,0.343
6,ATCATTGA,-0.107
7,GTATGACA,0.031
8,ATGAGAGC,-0.174
9,GAACTTAA,-0.00771
10,TTAACGAA,-0.0862
11,AGGCACGC,0.00505
12,AGACGTGC,-0.154
13,AGCCTGTA,-0.224
14,GCGTAAGA,0.138
15,AACGGAGG,0.3
16,AAAATCCA,-0.0177
17,GACTACCC,-0.0131
18,AATAGGCG,0.201
19,AACTCTGT,-0.0821
20,CGCCTACC,-0.0195
21,ACCATCAC,-0.082
22,GCGAACTA,0.0457
23,AGCATTGC,-0.106
24,GGGTACAA,-0.103
25,CGGCAAAG,0.26

row,Sequence,PBM E-score
1,ACGTTTCA,-0.0571
2,CGACCGGC,0.248
3,AAACATCT,-0.0887
4,GGTATCCA,0.00177
5,AACTAGCA,-0.0137
6,GTTGGTCA,-0.0823
7,ACATCCTG,0.0591
8,AGTAATCG,0.141
9,AGACTGCT,-0.29
10,AGATCTGC,-0.174
11,GCGTTCCC,0.13
12,GTCCTACA,0.0669
13,ACTTGATC,-0.133
14,GGACGTTA,0.0515
15,AGCATAAG,-0.00434
16,AATCTGTA,-0.057
17,ATCACATC,-0.0352
18,CAACGGGG,0.00195
19,CCGTCAAG,0.18
20,AACAATAA,0.0704
21,ATCACCAT,0.0294
22,CATTTAAC,-0.136
23,CCCAAGGA,-0.0659
24,CTCGCCAC,0.0357
25,GTATCGAC,-0.117

row,Sequence,PBM E-score
1,ATTCACCG,0.304
2,GCAACACA,-0.0231
3,AACCATGT,-0.0962
4,ACCGAATG,-0.00202
5,AAACGCCG,0.412
6,AGTCTAAC,-0.13
7,ACCTCTGA,-0.0775
8,GAGAGGGC,-0.151
9,AACCTGGC,-0.148
10,CGAGATGA,0.0382
11,CCCCTGGC,-0.054
12,CAGTGAAG,-0.229
13,ATCTTGGG,-0.119
14,GTAGAGTA,-0.219
15,GGTCACAA,-0.184
16,GACTAATC,0.171
17,GTCCCAAC,-0.209
18,CAAGGTGC,0.0222
19,ACTAATTC,0.0457
20,AAAGGCCC,-0.0211
21,AGCATTCA,-0.164
22,GATGCATC,0.121
23,ATCCATAA,0.0106
24,AGTGATTC,-0.154
25,ACGGTAAT,0.00092
